# Test results as given in a collection of fitness landscapes (doi:10.1126/science.1257360).
# The other results are listed elsewhere or left out.
# B1: PhoQ; a variant is named by its letters at X, in order, P23837 (parent)
# chain: MKKLLRLFFPLSLRVRFLLATAAVVLVLSLAYGMVALIGYSVSFDKTTFRLLRGESNLFYTLAKWENNKLHVELPENIDKQSPTMTLIYDENGQLLWAQRDVPWLMKMIQPDWLKSNGFHEIEADVNDTSLLLSGDHSIQQQLQEVREDDDDAEMTHSVAVNVYPATSRMPKLTIVVVDTIPVELKSSYMVWSWFIYVLSANLLLVIPLLWVAAWWSLRPIEALAKEVRELEEHNRELLNPATTRELTSLVRNLNRLLKSERERYDKYRTTLTDLTHSLKTPLXXLQXXLRSLRSEKMSVSDAEPVMLEQISRISQQIGYYLHRASMRGGTLLSRELHPVAPLLDNLTSALNKVYQRKGVNISLDISPEISFVGEQNDFVEVMGNVLDNACKYCLEFVEISARQTDEHLYIVVEDDGPGIPLSKREVIFDRGQRVDTLRPGQGVGLAVAREITEQYEGKIVAGESMLGGARMEVIFGRQHSAPKDE
# Variants of: B1
# Experiment: enrichment ratio after two sorts for PhoP signalling (ratio (wild type AVST 3.29)); higher = more functional
# Conditions: with PhoP (E. coli)
row,Variant,enrichment ratio
1,RMWE,≤ 0.25
2,ARAG,≤ 0.25
3,LTGH,≤ 0.25
4,QVHK,≤ 0.25
5,QWLM,≤ 0.25
6,PCFV,≤ 0.25
7,QMII,≤ 0.25
8,LYIE,≤ 0.25
9,RYNF,≤ 0.25
10,YMTA,0.317
11,WLVK,≤ 0.25
12,NIGP,≤ 0.25
13,YKVF,≤ 0.25
14,WSFS,≤ 0.25
15,SHTP,≤ 0.25
16,DAYN,≤ 0.25
17,LPPT,≤ 0.25
18,GNCT,10.8
19,HCER,≤ 0.25
20,VEHS,≤ 0.25
21,MDVA,≤ 0.25
22,MKYW,≤ 0.25
23,RLNT,≤ 0.25
24,QQNA,4.98
25,EAPF,≤ 0.25

row,Variant,enrichment ratio
1,SAPD,≤ 0.25
2,ASYK,≤ 0.25
3,EERM,≤ 0.25
4,AKEG,≤ 0.25
5,GSSY,≤ 0.25
6,SCNM,10.2
7,VHLM,≤ 0.25
8,ECFS,≤ 0.25
9,HDWG,≤ 0.25
10,AFVL,≤ 0.25
11,WWSS,≤ 0.25
12,LKRP,≤ 0.25
13,VSCD,≤ 0.25
14,IIPA,≤ 0.25
15,TGNI,4.8
16,RAHR,≤ 0.25
17,LRCR,≤ 0.25
18,LRAL,≤ 0.25
19,KWPP,≤ 0.25
20,WMWG,≤ 0.25
21,MVDI,≤ 0.25
22,STFV,≤ 0.25
23,TLFR,≤ 0.25
24,IVKF,0.272
25,DMAW,≤ 0.25

row,Variant,enrichment ratio
1,FHWG,≤ 0.25
2,LDTI,≤ 0.25
3,SCNL,0.751
4,ITCL,≤ 0.25
5,RCRI,≤ 0.25
6,RFSI,≤ 0.25
7,YSFS,0.335
8,RHVQ,≤ 0.25
9,MHVL,≤ 0.25
10,SQAC,13.4
11,YWWK,≤ 0.25
12,QHVY,≤ 0.25
13,DHFQ,≤ 0.25
14,PEKT,≤ 0.25
15,TTIW,≤ 0.25
16,LVPE,≤ 0.25
17,NGDY,≤ 0.25
18,SDSF,≤ 0.25
19,FRLD,≤ 0.25
20,DWDL,≤ 0.25
21,DHKT,≤ 0.25
22,TICY,≤ 0.25
23,HSKS,≤ 0.25
24,EQYA,≤ 0.25
25,LECH,≤ 0.25

row,Variant,enrichment ratio
1,PVYT,≤ 0.25
2,KLGI,≤ 0.25
3,SIHN,0.483
4,IARS,≤ 0.25
5,HYTP,≤ 0.25
6,KADY,≤ 0.25
7,MYWT,≤ 0.25
8,YFAM,≤ 0.25
9,PGKF,≤ 0.25
10,RGFG,≤ 0.25
11,KEKP,≤ 0.25
12,PKFD,≤ 0.25
13,KGTL,≤ 0.25
14,FWAM,≤ 0.25
15,AFLQ,3.65
16,KHQV,≤ 0.25
17,QHYR,≤ 0.25
18,NRHD,≤ 0.25
19,SQIN,12.8
20,KLGN,≤ 0.25
21,VMPW,≤ 0.25
22,HGIC,≤ 0.25
23,NQRC,≤ 0.25
24,RHWG,≤ 0.25
25,YSIH,≤ 0.25

row,Variant,enrichment ratio
1,SSKG,0.383
2,RFVM,≤ 0.25
3,GHRI,≤ 0.25
4,TFDG,≤ 0.25
5,YMQF,≤ 0.25
6,NDYI,≤ 0.25
7,YTVD,≤ 0.25
8,ACPH,≤ 0.25
9,GQYI,≤ 0.25
10,SDNE,≤ 0.25
11,TDGG,≤ 0.25
12,LGGP,≤ 0.25
13,GPRN,≤ 0.25
14,MDIR,≤ 0.25
15,IWYI,≤ 0.25
16,PFNY,≤ 0.25
17,DFFQ,≤ 0.25
18,DHMD,≤ 0.25
19,QPRN,≤ 0.25
20,SVTI,12
21,GSLI,15.5
22,MVSS,≤ 0.25
23,FMHR,≤ 0.25
24,LPLE,≤ 0.25
25,KAIY,≤ 0.25

row,Variant,enrichment ratio
1,GSFP,≤ 0.25
2,SGEH,≤ 0.25
3,TMMK,≤ 0.25
4,VRMK,≤ 0.25
5,ISYF,≤ 0.25
6,FLAD,≤ 0.25
7,HWRQ,≤ 0.25
8,FNRN,≤ 0.25
9,HAYV,≤ 0.25
10,GHSE,≤ 0.25
11,QEVM,≤ 0.25
12,YWCL,≤ 0.25
13,GRCH,≤ 0.25
14,TEKR,≤ 0.25
15,PFPD,≤ 0.25
16,TFGH,≤ 0.25
17,YSSM,0.616
18,MMFC,≤ 0.25
19,RQQV,≤ 0.25
20,MTMV,0.621
21,ARDW,≤ 0.25
22,MYDI,≤ 0.25
23,YKGI,≤ 0.25
24,FMGV,≤ 0.25
25,LPTE,≤ 0.25

row,Variant,enrichment ratio
1,DGSC,≤ 0.25
2,RNTP,≤ 0.25
3,FGSG,≤ 0.25
4,NRDF,≤ 0.25
5,TWTC,≤ 0.25
6,LMVW,≤ 0.25
7,WNAC,≤ 0.25
8,ELYP,≤ 0.25
9,ECNL,≤ 0.25
10,MHWN,≤ 0.25
11,IDMD,≤ 0.25
12,YRSL,≤ 0.25
13,IRLE,≤ 0.25
14,RCPH,≤ 0.25
15,IQDY,≤ 0.25
16,DHDR,≤ 0.25
17,FIEY,≤ 0.25
18,YEKT,≤ 0.25
19,FGNQ,≤ 0.25
20,HIKP,≤ 0.25
21,SLWQ,≤ 0.25
22,FWAN,≤ 0.25
23,DMAL,≤ 0.25
24,KMFE,≤ 0.25
25,FGFG,≤ 0.25

row,Variant,enrichment ratio
1,SFGN,≤ 0.25
2,TVDS,≤ 0.25
3,RHHS,≤ 0.25
4,ATIC,6.58
5,WRQY,0.703
6,LQGR,≤ 0.25
7,TKFE,≤ 0.25
8,DNIP,≤ 0.25
9,RKEH,≤ 0.25
10,SWRQ,≤ 0.25
11,VFYG,≤ 0.25
12,MEWL,≤ 0.25
13,TMAK,16.1
14,YVCS,0.325
15,MYMF,≤ 0.25
16,NWFQ,≤ 0.25
17,AEIA,15.4
18,YWTI,≤ 0.25
19,THKW,≤ 0.25
20,RASF,≤ 0.25
